Measured values published in the RNAGym collection of RNA variant scans (doi:10.1093/nar/gkz1192).
The source gives no read counts; variants with many changes may rest on few reads.

B1: CPEB3 Ribozyme (parent)
chain: UAACAGGGGGCCACAGCAGAAGCGUUCACGUCGCAGCCCCUGUCAGAUUCUGGUGAAUCUGCGAAUUCUGCUGUAUAUCUC

Variants of: B1
Experiment: self-cleavage, relative activity (ratio to wild type); higher = more cleavage; in vitro, sequencing
Procedure, shortened: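 After error-prone PCR and barcoding, CPEB3 ribozyme mutant libraries were transcribed with T7 RNA polymerase at 37°C for 5 hours, then given 15 min with DNase I before an EDTA stop, and they cleaved during both steps. Reverse transcription with template switching preceded Illumina sequencing. Relative activity divides a variant's cleaved/total read fraction by the unmutated ribozyme's. At least 5 reads were required per variant, and three batches were averaged.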
In the case of U1C A5G U26C U51C, the self-cleavage is reported as 0.1. In the case of U1C A5G U49A, the self-cleavage is reported as 0.14. Work on U1C A5G U51C A57G C62U A65G U67C yielded a self-cleavage of 0.09. Variant U1C A5G U67C C71G A77G has a self-cleavage of 0.12. Variant U1C A5U A13G A35G U51C has a self-cleavage of 0.7. U1C A5U A15G U26C C32A showed a self-cleavage of 0.31. U1C A5U A20G A35C A64G U67C gave a self-cleavage of 0.94. In the case of U1C A5U A21G U69C U80C, the self-cleavage is reported as 0.17. In the case of U1C A5U A45C U58C U72A, the self-cleavage is reported as 0.06. Work on U1C A5U A56U U58C U74C yielded a self-cleavage of 0.25. U1C A5U U25C A45G U48C U51A gave a self-cleavage of 0.04. In the case of U1C A5U U41G U43A A56U, the self-cleavage is reported as 0.29. U1C A5U U58C showed a self-cleavage of 0.65. With U1C A13C A18C the self-cleavage was 0.39. U1C A13C A21G gave a self-cleavage of 0.28. Variant U1C A13C A75U has a self-cleavage of 0.63. U1C A13C U25A U26C U67C gave a self-cleavage of 0.19. U1C A13G A15G A18U U43C C62U U66C showed a self-cleavage of 0.05. For U1C A13G A15G A56G U60C U80C, the self-cleavage was 0.29. Variant U1C A13G A18G U26C has a self-cleavage of 0.06. Work on U1C A13G A18G U51A U54C U72C yielded a self-cleavage of 0.08. Variant U1C A13G A20G has a self-cleavage of 0.79. U1C A13G A20G A45G A56G G70A showed a self-cleavage of 0.05. Variant U1C A13G A21G U31C U43C U74A has a self-cleavage of 0.44. Variant U1C A13G A28C A64G U66C has a self-cleavage of 0.06. In the case of U1C A13G A45U U76C, the self-cleavage is reported as 0.43. Variant U1C A13G A47G A57C A64G has a self-cleavage of 0.43. In the case of U1C A13G A47U U49C A57G C79A, the self-cleavage is reported as 0.44. U1C A13G A47U U69C showed a self-cleavage of 0.06. U1C A13G A77U showed a self-cleavage of 0.96. Work on U1C A13G C29G A47G U69C yielded a self-cleavage of 0.22. Variant U1C A13G C29G U43A has a self-cleavage of 0.09. With U1C A13G C38A U41A A47G the self-cleavage was 0.25. Variant U1C A13G C38A U78C has a self-cleavage of 0.31. In the case of U1C A13G C39U U41A U69C, the self-cleavage is reported as 0.05. For U1C A13G C40A A45G, the self-cleavage was 0.39. Variant U1C A13G G36U has a self-cleavage of 0.36. With U1C A13G U25C A65U G70A the self-cleavage was 0.03. U1C A13G U26A G36A gave a self-cleavage of 0.3. U1C A13G U26C U80A gave a self-cleavage of 0.27. For U1C A13G U48C U54A U60C, the self-cleavage was 0.07. Variant U1C A13G U49C has a self-cleavage of 0.33. U1C A13G U54A A65G gave a self-cleavage of 0.35. Variant U1C A13G U60C U66C U80C has a self-cleavage of 0.28. Variant U1C A13G U66C has a self-cleavage of 0.21. Variant U1C A13G U69A has a self-cleavage of 0.45. For U1C A13G U69C A77G C79U, the self-cleavage was 0.45. Work on U1C A13G U72A yielded a self-cleavage of 0.39. Work on U1C A13G U78C yielded a self-cleavage of 0.47. With U1C A13G U80A the self-cleavage was 1.14. For U1C A13U A15G G55U U58C U74A, the self-cleavage was 0.14. For U1C A13U A15U U25A U43A G73U U74C, the self-cleavage was 0.06. Variant U1C A13U A20G C68A has a self-cleavage of 0.19. U1C A13U A35G U58C showed a self-cleavage of 1.2. Variant U1C A13U A35U U41C U51A A75G has a self-cleavage of 0.19. U1C A13U A45G showed a self-cleavage of 1.06. In the case of U1C A13U U25C U31G, the self-cleavage is reported as 0.07. U1C A13U U41C showed a self-cleavage of 0.48. In the case of U1C A13U U41C A45U A64G, the self-cleavage is reported as 0.27. In the case of U1C A13U U51C A64G U80A, the self-cleavage is reported as 0.71. Variant U1C A15C A21C C40U A56G has a self-cleavage of 0.05. U1C A15C A28U A35U gave a self-cleavage of 0.19. Work on U1C A15C A28U A56G U60C yielded a self-cleavage of 0.47. With U1C A15C U41C U78C the self-cleavage was 0.8. U1C A15C U67C showed a self-cleavage of 0.08. U1C A15G A18G A77G showed a self-cleavage of 0.51. Variant U1C A15G A21G A47G U54C U60A C62U has a self-cleavage of 0.04. U1C A15G A21U showed a self-cleavage of 0.14. Work on U1C A15G A28G yielded a self-cleavage of 0.79. With U1C A15G A28G A35G the self-cleavage was 0.55. Variant U1C A15G A35U U54C has a self-cleavage of 0.21. With U1C A15G A45U U72C the self-cleavage was 0.21. For U1C A15G A56G G73U, the self-cleavage was 0.51. Variant U1C A15G A56U U67C has a self-cleavage of 0.12. Work on U1C A15G C29A A56G U60C yielded a self-cleavage of 0.07. U1C A15G C29U U66C gave a self-cleavage of 0.05. Work on U1C A15G C62U yielded a self-cleavage of 0.29. U1C A15G G19C A20G A28G G70A showed a self-cleavage of 0.41. Variant U1C A15G G30C A56U has a self-cleavage of 0.27. For U1C A15G U25C C79U, the self-cleavage was 0.07. For U1C A15G U25C U41C A56G, the self-cleavage was 0.38. With U1C A15G U26A A56G U69C U80C the self-cleavage was 0.12. With U1C A15G U41A the self-cleavage was 0.08. Variant U1C A15G U43A A64G U72A has a self-cleavage of 0.41.
